Results published in PubChem BioAssay AID248 (DTP/NCI, 2004).
Toxic doses and inconclusive results are not listed. Certain results were filed several times, with different values. The list is limited to them. There may be further records. Values that stand side by side do not match, cause unknown; dose, time, organism, isomer or construct need not be as stated for each record.

Test system: L1210 leukemia ip in BDF1 mice, survival T/C
Test: NCI In Vivo Anticancer Drug Screen. Data for tumor model L1210 Leukemia (intraperitoneal) in B6D2F1 (BDF1) mice
Details: endpoint: mean survival time, higher = longer survival

SMILES: Cc1c2ccncc2cc2c3ccccc3n(CC3CO3)c12 (stereo not drawn)
- T/C (dose: 300.0 mg/kg/injection, schedule: Q04DX003 (ip), vehicle: Klucel (hydroxypropylcellulose) (HPC)): 112 % of control and 152 % of control

SMILES: COC12C(COC(N)=O)C3=C(C(=O)C(C)=C(N)C3=O)N1CC1C2N1C (stereo not drawn)
- T/C (dose: 32.5 mg/kg/injection, schedule: Q01DX001 (ip), vehicle: saline): 122 % of control and 168 % of control

SMILES: O=C(CCBr)N1CCN(C(=O)CCBr)CC1
- T/C (dose: 200.0 mg/kg/injection, schedule: Q01DX001 (ip), vehicle: saline): 121 % of control, 122 % of control, 165 % of control
